Laboratory results from PMC4336329 (PLoS ONE, 2015).
Among all 310,000 compounds or so, about 2,200 (0.71%) showed an effect of 50% or more. Effects have a minus sign here. Some of the results follow.

target: human ether-à-go-go-related gene (hERG) potassium channel (human, UniProt Q12809); assay: primary screen, population patch clamp on CHO cells stably expressing hERG
Sequence (Q12809 whole entry, looked up): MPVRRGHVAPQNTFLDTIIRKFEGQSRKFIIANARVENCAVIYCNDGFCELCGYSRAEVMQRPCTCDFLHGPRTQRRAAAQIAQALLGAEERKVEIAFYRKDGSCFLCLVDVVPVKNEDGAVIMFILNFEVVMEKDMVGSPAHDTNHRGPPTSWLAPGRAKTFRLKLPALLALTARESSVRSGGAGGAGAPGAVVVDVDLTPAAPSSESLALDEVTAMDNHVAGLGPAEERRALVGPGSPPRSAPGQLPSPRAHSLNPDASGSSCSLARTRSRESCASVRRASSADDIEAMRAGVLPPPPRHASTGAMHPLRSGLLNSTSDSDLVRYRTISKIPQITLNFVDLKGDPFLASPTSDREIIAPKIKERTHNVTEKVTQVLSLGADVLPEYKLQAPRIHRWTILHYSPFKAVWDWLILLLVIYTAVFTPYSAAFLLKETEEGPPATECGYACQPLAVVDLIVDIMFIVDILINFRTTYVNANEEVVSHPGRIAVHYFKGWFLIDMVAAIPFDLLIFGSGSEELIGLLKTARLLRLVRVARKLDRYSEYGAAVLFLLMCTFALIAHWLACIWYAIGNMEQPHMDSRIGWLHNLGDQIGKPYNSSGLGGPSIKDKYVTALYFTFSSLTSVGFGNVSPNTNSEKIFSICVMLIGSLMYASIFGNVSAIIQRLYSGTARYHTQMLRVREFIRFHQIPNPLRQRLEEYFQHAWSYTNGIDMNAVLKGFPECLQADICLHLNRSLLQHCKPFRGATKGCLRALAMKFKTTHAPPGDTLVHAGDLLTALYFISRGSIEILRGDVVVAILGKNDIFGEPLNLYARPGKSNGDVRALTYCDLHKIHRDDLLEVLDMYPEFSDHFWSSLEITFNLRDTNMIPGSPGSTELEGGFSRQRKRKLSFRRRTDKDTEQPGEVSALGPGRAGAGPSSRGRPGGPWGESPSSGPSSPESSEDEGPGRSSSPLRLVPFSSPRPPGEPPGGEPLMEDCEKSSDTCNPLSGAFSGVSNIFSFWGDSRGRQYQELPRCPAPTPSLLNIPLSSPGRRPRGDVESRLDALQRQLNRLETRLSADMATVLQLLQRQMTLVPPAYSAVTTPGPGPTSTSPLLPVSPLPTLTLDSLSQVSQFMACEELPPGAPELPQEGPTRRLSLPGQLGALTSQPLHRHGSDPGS

SMILES	hERG current change (%, negative = inhibition) at 1uM [%]
CCOC(=O)c1ccc(-n2c(C)nc3ccccc3c2=O)cc1	2.26
O=C(c1ccc(CS(=O)(=O)Cc2ccccc2)cc1)N1CCCCC1	25
CC(=O)Nc1c([N+](=O)[O-])cc2[nH]c(=O)[nH]c2c1[N+](=O)[O-]	13.6
Oc1ccccc1Nc1ccccn1	12.5
CCOc1ccccc1C(=O)Nc1ccc(-n2nncc2C(C)(C)C)cc1	6.74
Cc1ccc(/C=N/NC(=O)c2nnn(-c3nonc3N)c2C(C)C)o1	7.2
O=C(Nc1cccc2cccnc12)c1ccccc1Br	9.36
COc1ccc(S(=O)(=O)NCC2CCCN(C(=O)CCC(F)(F)F)C2)cc1 (centres unmarked)	7.38
COc1ccc(S(=O)(=O)N2CC(C)N(S(=O)(=O)c3ccc(OC)cc3)CC2C)cc1 (centres unmarked)	-6.25
O=c1cccc(-c2ccc(Br)cc2)o1	7.49
CC(C)(C)c1cc(-c2ccco2)c(C#N)c(SCC#N)n1	16.6
O=C(N/C(=C/c1ccccc1)C(=O)N1CCOCC1)c1ccc([N+](=O)[O-])cc1	-19.6
Cc1cc(C(=O)Nc2sc3c(c2C#N)CCC(C(C)(C)C)C3)no1 (centres unmarked)	-3.87
COc1ccc(C(=O)N(C)C2CCCc3ccccc32)cc1OC1CCN(C(C)C)CC1 (centres unmarked)	-0.15
CC(=O)N1CCN(Cc2nc3cc(NC(=O)c4ccccc4C)ccc3n2C)CC1	9.4
O=c1[nH]c(=O)n(Cc2ccccc2)c(O)c1C=NCCCO	-2.99
N#CCNC(=O)C1CC(=O)N(CCc2ccc(F)cc2)C1 (centres unmarked)	15.6
COc1cc(N/N=C(\C)c2ccc(N)cc2)nc(-c2ccccc2)n1	10
Cc1nc(N2CCC(C)CC2)c2c(C)c(C(=O)Nc3ccc(C)c(F)c3)sc2n1	11.6
CCOC(=O)c1ccc2nc(C)c(CCC(C)=O)c(Cl)c2c1	7.23
CCOc1ccc(NC(=S)NC(=O)c2cccnc2)c([N+](=O)[O-])c1	13
Cc1ccc(S(=O)(=O)N2[C@@H](c3ccc(F)cc3)C(C(=O)O)=CC[C@H]2c2ccc(C(C)C)cc2)cc1	17.1

SMILES	hERG current change (%, negative = inhibition) at 1uM [%]
CCC(C)NS(=O)(=O)c1ccc(OCC(=O)N2CCN(CC)CC2)cc1 (centres unmarked)	5.37
CCC(C)[C@H](NC(=O)NCc1cccnc1)C(=O)OC (some centres unmarked)	12.2
CC1CN(c2ccc([N+](=O)[O-])c3cccnc23)CC(C)N1 (centres unmarked)	-8.73
Nc1nonc1-n1nnc(C(=O)N/N=C/c2cccc(F)c2)c1CN1CCCCCC1	18
Cc1cccc(CC2CC(=O)N(c3ccc([N+](=O)[O-])cc3)C2=O)c1 (centres unmarked)	-8.02
Cc1nc2c(cc1C(=O)N/N=C/c1ccc([N+](=O)[O-])cc1)c(=O)n(C)c(=O)n2C	-4.68
NC(=O)Cn1cc(/C=N\NS(=O)(=O)c2cccc([N+](=O)[O-])c2)c2ccccc21	9.8
COc1cccc(/C=N/NC(=O)C(C)Cn2cnc3ccccc32)c1 (centres unmarked)	-0.542
Cc1cc2cc(CCNC(=O)C(=O)c3c[nH]c4ccccc34)c(=O)[nH]c2cc1C	3.28
CCOC(=O)CNC(=O)c1cn(C)c(=O)c2cc(OC)c(OC)cc12	12.1
O=C(c1ccc(CSc2ccc(Cl)cc2)cc1)N1CCOCC1	5.57
CN(Cc1cccnc1)Cc1cn(C)nc1-c1cccc(Cl)c1	-1.09
COc1ccc(-c2nnc(SCC(=O)N(Cc3ccccc3)C(C)(C)C)o2)cc1OC	-7.09
O=C(CSc1nnc(-c2ccncc2)n1CC1CCCO1)Nc1nccs1 (centres unmarked)	15.9
C=CCOc1ccc(C2/C(=C(/O)c3ccc4c(c3)CC(C)O4)C(=O)C(=O)N2CCCN2CCOCC2)cc1 (centres unmarked)	17.2
CCCC[C@@H]1CCCO[C@@](C(=O)NCc2cc(C)n(C)n2)(C(F)(F)F)C1	14.9
Cl.O=C(c1c(F)cccc1F)N(Cc1ccccn1)C1CC1	-0.0127
O=C(Cn1ccc(C(F)(F)F)n1)N=Nc1c(O)[nH]c2ccc(Br)cc12	6.45
CC(=O)CC(C)(C)S(=O)(=O)c1ccc(Oc2ccc(S(=O)(=O)C(C)(C)CC(C)=O)cc2)cc1	8.08
S=C(NCc1ccco1)N/N=C/c1ccccc1Cl	0.292
N#CCC(=O)Nc1ccc(C(=O)Nc2ccc3c(c2)OCO3)cc1	3.7
CC(=O)c1coc2ccc(OCCN3CCCCC3)cc12	3.59

SMILES	hERG current change (%, negative = inhibition) at 1uM [%]
O=C(O)c1ccc(NCc2cccnc2)cc1	17.5
Cc1ccccc1NC(=O)C12CC3CCC1(C)C3(C)CO2 (centres unmarked)	4.62
COc1ccc(NC(=O)CCNC(=O)Cn2ccc3ccccc3c2=O)cc1OC	13.9
COc1ccc(CNC(=O)CCC2N=C3c4ccccc4N=C(SCC(=O)NCC4CCCO4)N3C2=O)cc1 (centres unmarked)	5.52
O=C(N/N=C/c1cccc(O)c1)c1csc2ccccc12	4
CN(C)CCOC(=O)C1(c2ccccc2)CCOCC1.Cl	2.93
COc1ccc(CN2CCC(Oc3ccc(C(=O)N4CCCCC4)cc3)CC2)cc1C	-3.19
CCCC(NC(=O)Cc1c(C)c2c(cc(C)c3c(C)coc32)oc1=O)C(=O)O (centres unmarked)	10.3
Cc1cc(C)c2nc3sc(C(=O)N4CCOCC4)c(N)c3cc2c1	6.85
COc1cc(NC(=O)c2cc(C)no2)c(OC)cc1Cl	9.57
O=C(CC1C(=O)OCC2CCCCN21)Nc1ccccc1C(F)(F)F.O=C(O)C(=O)O (centres unmarked)	3.9
CC(=O)c1ccc(NC(=O)[C@@]2(CC(=O)O)CC(/C=C/c3ccccc3)=NO2)cc1	12.1
O=C(CSc1nnc(Cc2ccccc2)c(=O)[nH]1)Nc1ccccc1	-6.94
COc1ccc(OC)c(-n2c(Cn3c(-c4ccccn4)nc4ccccc43)n[nH]c2=S)c1	1.47
COc1ccc(C2=NOC(Cn3nc(-c4ccccc4)cc3C(=O)O)C2)cc1 (centres unmarked)	21.6
Cl.OC(CNCc1ccc(Cl)c(Cl)c1)c1ccccc1 (centres unmarked)	7.33
CCOc1cccc(-c2nnc3sc(COc4ccc(C)cc4)nn23)c1	9.47
CCOc1ccc(C(=O)N/N=C/c2cc([N+](=O)[O-])cs2)cc1	4.48
CC(CN1CCCC1)OC(=O)COc1ccccc1.Cl (centres unmarked)	9.11
COCCn1c(C)cc(C(=O)CSc2nc3ccccc3c(=O)n2C(C)COC)c1C (centres unmarked)	16
Cc1c(NC(=O)COC(=O)c2ccc(Br)o2)c(=O)n(-c2ccccc2)n1C	7.48
O=C1c2ccccc2C(=O)C1C1=Nc2ccccc2NC(c2ccccc2)C1 (centres unmarked)	31.6

SMILES	hERG current change (%, negative = inhibition) at 1uM [%]
Cc1cc(C)c2c(c1)-c1cc(C)nn1C(c1cccnc1)N2 (centres unmarked)	-5.29
Cc1c(Cl)cccc1NC(=S)N1CCN(S(=O)(=O)c2cccs2)CC1	7.01
CC1CCCC(NC(=O)c2ccc(F)c(S(=O)(=O)N3CCOCC3)c2)C1C (centres unmarked)	9.38
CCc1ccc(C(C(=O)NC2CCCC2)N(C(=O)/C=C/C(=O)Nc2cc(C)on2)c2ccccc2C)cc1 (centres unmarked)	7.84
Cn1c(=O)c2ccccc2n(Cc2ccccc2Cl)c1=O	4.87
O=C(COc1ccccc1Cl)Nc1ccc(Cl)cn1	17.3
O=C(NCc1ccco1)c1cccc(NS(=O)(=O)c2ccccc2F)c1	6.58
C=C1c2ccccc2S(=O)(=O)N(Cc2ccccc2)C1COCc1ccccc1 (centres unmarked)	3.22
N#Cc1ccccc1OCC(=O)NNC(=O)CNC(=O)c1cccc(Br)c1	1.85
CCn1cc(C(=O)NCC2CCCO2)c(=O)c2cc(S(=O)(=O)N3CCCCC3)ccc21 (centres unmarked)	-8.38
c1ccc(Nc2n[nH]nc2-c2ccccc2)cc1	-9.17
CC(Oc1ccc(Cl)cc1)c1ccnc(N)n1 (centres unmarked)	15.5
COc1cc2c(cc1OC)CN(C(=O)Cc1c(F)cccc1Cl)CC2	11.9
COc1ccccc1-c1nc2n(n1)C(c1cccs1)C(C(=O)Nc1cccnc1)=C(C)N2 (centres unmarked)	0.0177
CC1(NC(=O)CCNC(=O)c2ccc(C(C)(C)C)cc2)CCS(=O)(=O)C1 (centres unmarked)	10.9
O=[N+]([O-])c1cc(F)c(N2CCCCC2)cc1N1CCOCC1	-12.4
O=C(CN1CCCCCCC1)N/N=C/c1ccc(F)c(F)c1	-7.58
Cc1cccc(N(C(=O)CNC(=O)c2cccs2)C(C(=O)NC2CCCC2)c2cccnc2)c1 (centres unmarked)	12.9
O=C(Nc1ccc(N2CCCCC2)cc1)c1ccc(F)cc1F	13.3
O=C(CN1CCN(S(=O)(=O)c2cccc(Cl)c2)CC1)N1CCCCC1	13.2
